Reference: the supplement of paper PMC11417369
Some of the results follow.

Test system: PfHDP1 homeodomain (GST-tagged)
Assay: gcPBM binding intensity (ln(normalized median fluorescence intensity)); higher = stronger DNA binding
In short: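 The highest Masliner-normalised natural-log median intensity across replicate spots of either probe orientation is reported as binding intensity. GST-tagged P. falciparum DNA-binding domains expressed in E. coli were applied for 1 h to an Agilent 4 × 180k array of primer-extended double-stranded 36-bp intergenic genomic probes plus negative controls, and bound protein was detected with Alexa488 anti-GST antibody and scanned at 488 nm.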

Row | Sequence | gcPBM binding intensity (ln)
1 | GGGAGAAATTTATACATACACACATATATATATTAT [CACACA_site4039] | 6.76
2 | AAAAAAATAATGTACACACACATATCTGTTTATATA [CACACA_site4270] | 6.46
3 | ATATTTATATATATATGTACATATGTGTGTTTTTAT [XGTACX_site3956] | 6.66
4 | TCATAAACATTATGCACACAAAAATAAAAAAAAATA [CACACA_site1115] | 10.2
5 | ATATATAACTTTTCTTAACACACAAAAAACAAAAAT [CACACA_site8748] | 6.93
6 | AGGGAATAATATTAATGTACATATATGAACTTGTTT [XGTACX_site6089] | 6.52
7 | TATAAAAAGGAAAAATAAAAATAAAAATAAAAATTA [CACACA_negctrl_site1822] | 6.07
8 | TCTTTTAAAAATTAAGTGCATGTCCTTATAACAAAA | 7.58
9 | AATATTTAAAACAAATCACACATGTATCCATAAATG [CACACA_site5308] | 6.33
10 | ATATCCCATATGTAATGTACTTACACTTTCTTAATT [XGTACX_site7020] | 6.73
11 | TAAATATTTTATTGTACACACTTTTTATGAATGATG [CACACA_site5694] | 6.81
12 | ATAAAATATATATGCACACACATATATATTTCATAC [CACACA_site3547] | 10.2
13 | ACATAAAATAAATATACACACATATGTATATATTAT [CACACA_site3041] | 6.59
14 | AAAAGAATTTAGAAGGCATGCACTTAAACATGGATA [TGCATGCA_site699] | 7.34
15 | ATATATATATATATGTGTACTTATAAATATATCTGT [XGTACX_site4337] | 9.14
16 | TATTTTTACAATGGTAGTACCATTTTGAATCTTTGT [XGTACX_site6092] | 6.14
17 | CACCCGCACGTATTTGCACACATTGCCACGTAATTA [CACACA_site5786] | 10.7
18 | TGCTTATCCATTTCTACACACAAAAAAAAAAAAAAA [CACACA_site37] | 6.36
19 | TATATATATTTATGTTGTACAAAATATTATTACGTA [XGTACX_site5384] | 6.6
20 | AAATGGGTTTATTTAACACACAAAAGAAAAAATATA [CACACA_site1938] | 6.57
21 | TTATATTATAACAAACGTACGAATTTTATACAAATA [XGTACX_site7258] | 6.22
22 | ATGTGATGTTATATATGTACTTATTTTTTAATAAGG [XGTACX_site1786] | 6.72
23 | AAAAATATTATGATGTTTATTAGAAAGGAAAAAACT [CACACA_negctrl_site1417] | 6.43

Row | Sequence | gcPBM binding intensity (ln)
24 | TTTTTATATTATTTAATGAGAAATAATTATAAACAA [CACACA_negctrl_site553] | 6.27
25 | TCGGTATCTGTTCAAAGTACACATTTGTATACAAAA [XGTACX_site1890] | 6.63
26 | ACACTATCTTAGATTTGTACATATTTATATATGTAT [XGTACX_site8739] | 6.16
27 | TATATAACATATGGGACACACATGCAACTGTTATAT [CACACA_site3792] | 6.89
28 | AACATATACACGAACACACACACATATATATATATA [CACACA_site502] | 9.15
29 | TAAAGAAAAAAATGTTGTACTTTATGAAACATATTT [XGTACX_site412] | 6.32
30 | AAAACAAATGAGTACACACACATAAAAATTGAAAAT [CACACA_site199] | 6.55
31 | GTATATATATATATATGTACATATTTAGAGTTCTGT [XGTACX_site5357] | 6.63
32 | ATATTTACCATTGTATGTACATATATAAAATATATC [XGTACX_site3237] | 6.62
33 | ATATATATATATATATGTACATATATACATATATGT [XGTACX_site1521] | 9.32
34 | AGTAGTCTGGAGAAGAGTACATAGTTTCTGGTAGCT [XGTACX_site2023] | 6.01
35 | TTTTTTTTTTTTTGATGTACAATAATTAAAGAGTAA [XGTACX_site8403] | 6.2
36 | CGTAGCCCCACTAACACACACAAATATACTCAATCA [CACACA_site5587] | 6.76
37 | AGTTTTTATTAAAACAAAATTTAATTATAACGTTGA [XGTACX_negctrl_site298] | 5.84
38 | TTATATGTATGAACAAGTACATGCTATAATTATAAA [XGTACX_site1399] | 6.38
39 | TATATATATATATACACACATACATATATATATTTG [CACACA_site857] | 9.28
40 | TGAAATGGAAACAACTGTACAAAATAAATATGATAT [XGTACX_site1311] | 6.86
41 | AATATTAACAATCGCACACATATTATTTTTCCAAAA [CACACA_site4982] | 7.13
42 | ATATAAATATAGCATACACACAAAAAAATAAAATAA [CACACA_site2333] | 6.86
43 | CAACATTTGAAACACACACACATACAAACAAACAAA [CACACA_site3306] | 6.91
44 | TTTTTTTTTTTTGTCACACATATTTGTATTAATCAT [CACACA_site5235] | 6.56
45 | AAAAAACTTTTAAGCACACACATAGATAATATAGAT [CACACA_site6835] | 6.93
46 | TTTTTATTAAAATGTATTTTAGGAAAAAACAAAAAA [XGTACX_negctrl_site437] | 6.04

Row | Sequence | gcPBM binding intensity (ln)
47 | TTCCCTTTTGTAAAATGTACATATATATTTAAACAA [XGTACX_site3263] | 6.8
48 | TAAGTTCCCTTTGAATGTACATATAATGAAAAGAAA [XGTACX_site826] | 6.66
49 | GAGATAAAATAAAACACACACATATATTTATATAAC [CACACA_site7098] | 6.55
50 | TATTAATTTTTAAACATAATTTTTCGTATAATATAT [CACACA_negctrl_site762] | 6.09
51 | TTTACTTTCTTATTTTCACACATTTAAAAAAAAATT [CACACA_site5949] | 6.88
52 | ACATCTAATTTGTATACACACAATAATAAATGGTGA [CACACA_site824] | 6.61
53 | TATATATATTTATAATGTACATATTTTTTTTTATTT [XGTACX_site4761] | 6.9
54 | TTGTATATATGACTTTTTTATATTTCAATTTTGTGC [CACACA_negctrl_site296] | 6.15
55 | AAATGAAATAAATGTAGTACACATATACAATATATA [XGTACX_site6951] | 6.53
56 | TGTATATCATATATTTGTACTCAATTAATATAAACA [XGTACX_site3970] | 6.4
57 | TATTTTTATACAATTTAACACGGGTTATAAAATGTA [CACACA_negctrl_site566] | 6.51
58 | TATGGAAGAAAATATACACACAAAAAAAAAAAATGT [CACACA_site1486] | 6.58
59 | ATACTTTTATTTTTGGTGCATATATCATGTAGACGT | 10
60 | AATTTATTATTTGTATGTACTCATATGATTCACTTA [XGTACX_site2797] | 6.26
61 | AAAATCAAGTAGTATAAAGTAAGTATCATAAAAATA [CACACA_negctrl_site1554] | 6.43
62 | GTACACTAATTATGTGCACACAAATTAAAGGTCTAC [CACACA_site146] | 11
63 | ATAATAAAATGGAGAGTGCATACATGTTTATTTTAT | 7.7
64 | AAAAAAAATTAGGAAACATGCATGTCCCGATAAATA [TGCATGCA_site149] | 6.5
65 | AGATATATTATTAGGTGTACTATAAAATAAATTCAC [XGTACX_site221] | 6.42
66 | CGAACAAACAAATAAACACACAAAAAAAGATATATA [CACACA_site6944] | 6.75
67 | GTGTGTTGTATATACTGTACATACTTTATATATAGT [XGTACX_site1876] | 7.09
68 | TATAACAAGTAATGTTGTACATTGTATTATGTAATA [XGTACX_site6372] | 6.29
69 | AAATGTGTTTATTTAACACACAAAAGAAAAAATATA [CACACA_site6993] | 6.7

Row | Sequence | gcPBM binding intensity (ln)
70 | AATGTAAAATATATGTGTACATATGTTTATATATAT [XGTACX_site2216] | 6.81
71 | CAATCAAAGAAACACACACACACCTAAACATAAAAG [CACACA_site2756] | 6.97
72 | TTAACGTAAAATATAGTGCATAGTATCATATTGATA [GTGCAC_site9527] | 8.1
73 | TGTAGTTTGTCCCATGCATGTTCCATTAAAATATAT [TGCATGCA_site854] | 7.57
74 | AATGTATATATGTAATGTACATATATAATGTATATA [XGTACX_site6510] | 6.6
75 | TTACTCATGAAAGATACACACATTCATTATATATAT [CACACA_site3252] | 6.7
76 | TATATAAACCCGTACACACACATATATGTATATATA [CACACA_site3507] | 7
77 | AAATTTACAATACATTGTACATATTAATAATATTCC [XGTACX_site3646] | 6.26
78 | AATAAAAATTTACTTTGTACACATATTAAATTCAAT [XGTACX_site1957] | 6.24
79 | TACTTCTACAAGAGAAGTACAATATTTTTTATATTA [XGTACX_site8351] | 5.76
80 | AGACATAAGATAATTACACACAATACATCCCTATAT [CACACA_site2227] | 6.82
81 | TAAAATTAGGAAATTGCACACAAAAAAAAACATATT [CACACA_site9349] | 9.48
82 | ATAAAGCCATACAATACACACATTTTACATGGCTGT [CACACA_site5756] | 6.49
83 | TTTGTTATATTTAATACACACATATTATAAACCCAT [CACACA_site3716] | 7.19
84 | AAAAAAAAAAGACACACACACAAATACAAATGGTAA [CACACA_site6906] | 6.64
85 | TATAAATAAATTTATACACACACACCCATATATATA [CACACA_site8183] | 7
86 | TACCAAAATAGACACACACACAAAATATGTAAATAT [CACACA_site6963] | 6.74
87 | TATATTTTAGTTAATGCATGTGTGCATCCATTTAAA [TGCATGCA_site887] | 9.01
88 | ATACATATATATATATGTACACACATTAATAAAAAA [XGTACX_site6874] | 6.83
89 | ATATATACATTTCTATGTACATATGTATATATGTAT [XGTACX_site1522] | 6.54
